± gives the standard deviation of the averaged measurements. This is one part of the list.

The test has as its system PfAP2-I AP2 domain 3 (GST-tagged). Description: gcPBM binding intensity (ln(normalized median fluorescence intensity)); higher = stronger DNA binding. The method in brief: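 After 1 h on an Agilent 4 × 180k array of primer-extended double-stranded 36-bp intergenic genomic probes and negative controls, bound GST-tagged P. falciparum DNA-binding domains were detected with Alexa488 anti-GST antibody and scanned at 488 nm. The domains had been expressed in E. coli, and binding took place in 1× PBS with 1% milk, 0.2 mg/ml BSA, 0.5% salmon testes DNA and 0.03% Triton X-100. Binding intensity is the highest Masliner-normalised natural-log median intensity across replicate spots of either probe orientation.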
Take “TACATATACAGACACACACACACACCCCCACAAAAA [CACACA_site495]”: the “gcPBM binding intensity (ln)” value worked out at 9.96 ± 0.12. The figure for “AAATTAATAAGTCACACACACATATATAATATATAT [CACACA_site799]” is 7.8 ± 0.61; for “AATATATACATTTATATACACACCTATATATATATA [CACACA_site1972]” it is 9.21 ± 0.33; for “GTTATATGTTATATATATATATATATATATATATAT [TGCATGCA_negctrl_site428]” it is 9.16 ± 0.69. As for “AGCATCATTTTACACACATGCAAATGTAAAATAGGA [TGCATGCA_site460]”, the “gcPBM binding intensity (ln)” value was determined as 8.08 ± 0.73.

On to “ATATTCATATATACTTCACACACATTTTATCATTCA [CACACA_site8784]”, for which the “gcPBM binding intensity (ln)” value came to 7.97 ± 0.51.

On to “AAAAAAAAAAATAAATAAATAAATAAATATATATAT [TGCATGCA_negctrl_site468]”, for which the “gcPBM binding intensity (ln)” value came to 8.81 ± 0.11.

For the sequence “TACATACATATATATACACACATATATAATATATAT [CACACA_site388]”, the “gcPBM binding intensity (ln)” value amounted to 7.89 ± 0.27. “TATATATACATATACACACATACGTACATACATATA [CACACA_site3585]”: the “gcPBM binding intensity (ln)” value is 8.07 ± 0.29. For “ATGAAAGTAAGACATGCATGGAATTTTTTTTATTAG [TGCATGCA_site348]”, the “gcPBM binding intensity (ln)” value is 7.46 ± 0.89. For the sequence “GGAATATTTTATGAGTGTACATTTTTTTTTTTTTTT [XGTACX_site2370]”, the “gcPBM binding intensity (ln)” value came out at 8.52 ± 0.59. Regarding “TTTCTTTTTTTTTTTTTTTCTTTTTTTTTTTTTTTC [CACACA_negctrl_site1025]”, the “gcPBM binding intensity (ln)” value was determined as 7.63 ± 0.84. In the case of ATAATCCAACTTTGAGTGCGTGGTGTTTTTTTTTTC, the “gcPBM binding intensity (ln)” value was found to be 8.07 ± 0.81.

As to “TATAATACAACATGCACACATATATATGTGAATCTC [CACACA_site2490]”, the “gcPBM binding intensity (ln)” value was 8.54 ± 0.39.

Take “TTTAAAAATAAAAGTACACACATAAACATATTACAC [CACACA_site1428]”: the “gcPBM binding intensity (ln)” value came out at 8.46 ± 0.18.

In the case of “ATAAAATAAACATAAATAAACATAAATAAACAAAAA [CACACA_negctrl_site1270]”, the “gcPBM binding intensity (ln)” value was 7.59 ± 0.67. With “AGGTATATATACATATGTACGTATATATATATATAT [XGTACX_site5115]”, the “gcPBM binding intensity (ln)” value amounted to 8.77 ± 0.44.

“TTTCTAATTTATATCACACACATATTTATATAGTAA [CACACA_site6813]”: the “gcPBM binding intensity (ln)” value was 7.72 ± 0.54. With “GGCGTATGTGTATATACACACCCACGTATATAAATA [CACACA_site7489]”, the “gcPBM binding intensity (ln)” value was found to be 8.09 ± 0.49.

As for “TTATATAAATTATTTACACACAAACATTTATACTTT [CACACA_site3449]”, the “gcPBM binding intensity (ln)” value amounted to 7.84 ± 0.55. Take “TATTCCCTTCTTCCTTCTGTTTTTGATATTAAAGGG [GTGCAC_negctrl_site270]”: the “gcPBM binding intensity (ln)” value stood at 7.78 ± 0.43. Under “ATACTTTATTCGTTAGCACACAATTCAAGTTGATTC [CACACA_site1123]” stands 8.29 ± 0.52. For the sequence “AAGATACCCCAAAATTGTACATATTAAAATAATAAA [XGTACX_site3603]”, the “gcPBM binding intensity (ln)” value amounted to 7.87 ± 0.66. As to “TTGTAAAACTTATAATGTACATTTTTTTTTTTTTTT [XGTACX_site5398]”, the “gcPBM binding intensity (ln)” value stood at 8.3 ± 0.49. Take “AGGGACATCTATATCACACACAAAAATTAGTCCCTT [CACACA_site7330]”: the “gcPBM binding intensity (ln)” value is 7.65 ± 0.57. Turning to “TTTTTTTTTTTTTGCACACACATTGAATTATTATTC [CACACA_site197]”, the “gcPBM binding intensity (ln)” value came out at 9.45 ± 0.29. As to “TATATAGAGAGATATGCACACTGTATGAATGCCCCC [CACACA_site5476]”, the “gcPBM binding intensity (ln)” value stood at 9.83 ± 0.028.

With “TATACCTATATACATACATGCAAATATATATTCATA [TGCATGCA_site269]”, the “gcPBM binding intensity (ln)” value was 8.13 ± 0.26. Regarding “ATAAGAAAATATAAAATGCACACTATAAATTGTATA [CACACA_site143]”, the “gcPBM binding intensity (ln)” value was 8.68 ± 0.2. For the sequence “ATATGTCACTTGTATACACACATATATATTTCAATC [CACACA_site3256]”, the “gcPBM binding intensity (ln)” value turned out to be 8.07 ± 0.42. As to “CTGAAAAAAAAGCTTGCACACGTATTTGCTTTATGT [CACACA_site8427]”, the “gcPBM binding intensity (ln)” value amounted to 8.1 ± 0.52. Under “TTACTTATAAATAAATATACAAAAATGTTATATATA [XGTACX_negctrl_site223]” stands 7.29 ± 0.4; under “TTTTTTTTTTTTGAAGTGCATTACTTTTTTTGTATT [GTGCAC_site9811]”, 11 ± 0.44; under “TTTTTTGTGTTTGGTACACACGTTATAAAAAATAAA [CACACA_site4866]”, 7.93 ± 0.35. Under “GAAAATAGCTAAAATACACACAATTAAAAATTATTA [CACACA_site3506]” stands 7.3 ± 0.44.

On to “AGGAATATAAAGTGCACACATAATTTGGGGGCAAAA [CACACA_site258]”, for which the “gcPBM binding intensity (ln)” value is 10.6 ± 0.44.

In the case of “TTGTTTCTACAATTTAATAAAATACGTTTTCAAAAA [XGTACX_negctrl_site377]”, the “gcPBM binding intensity (ln)” value was found to be 7.38 ± 0.5. The figure for “TACTCCTTAAATATATGTAAAGGAAGAAAAAAAAAA [XGTACX_negctrl_site306]” is 7.86 ± 0.75. Turning to “ACAATAAAAATAAAAAGTACAAATAAAAAAAATAAA [XGTACX_site6718]”, the “gcPBM binding intensity (ln)” value came to 7.91 ± 0.26. The figure for “AATATATGTTTAATTTCACACACAAATATACATTTT [CACACA_site9385]” is 7.69 ± 0.65; for “ATATATATATATATATGTACACATATACGCTTTTTC [XGTACX_site3838]” it is 9.59 ± 0.63. Turning to “TTTGAGATAAAAGACTGTACTTAGAATGTATAAAAA [XGTACX_site203]”, the “gcPBM binding intensity (ln)” value was 7.98 ± 0.52. Regarding “TTTAATTTTATATAGAGTACAAAAAAATAGAAAGAT [XGTACX_site3870]”, the “gcPBM binding intensity (ln)” value came out at 8.34 ± 0.36. As for “ATATATATATATATATGTACATAAATATTTTAAAAT [XGTACX_site4980]”, the “gcPBM binding intensity (ln)” value was 9.55 ± 0.61.

(Values after the supplement of paper PMC11417369.)
